From the BET-seq Pho4 binding data (Le et al. 2018)
This is one part of the list. These are noisy estimates, calculated here from bound and input reads.

Biological target: T1, Pho4 (S. cerevisiae) (UniProt P07270)
T1 sequence: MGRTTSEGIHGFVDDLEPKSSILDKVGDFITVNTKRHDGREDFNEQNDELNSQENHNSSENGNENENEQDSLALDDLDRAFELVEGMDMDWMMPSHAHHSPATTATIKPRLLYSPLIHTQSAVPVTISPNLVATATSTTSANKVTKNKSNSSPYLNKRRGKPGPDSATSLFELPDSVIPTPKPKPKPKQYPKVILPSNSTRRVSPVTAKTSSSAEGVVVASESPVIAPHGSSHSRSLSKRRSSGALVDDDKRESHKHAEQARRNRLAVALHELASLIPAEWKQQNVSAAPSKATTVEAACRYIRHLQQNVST
Assay: relative binding free energy (BET-seq); higher = weaker binding
Settings: reference: library average

Relative binding free energy, 0.03 kcal/mol:
GTCAGCACGTGTTGCG
ATTTACACGTGGGTGC
GGCTGCACGTGGAGAG
TGGATCACGTGGGCAT
AAGTTCACGTGCGTGA
TAGTCCACGTGTTTTT

Relative binding free energy, 0.31 kcal/mol:
CTGATCACGTGATGGA
AGGTTCACGTGTTCGG

Relative binding free energy, -0.24 kcal/mol:
TTTGCCACGTGGTGTG
GCGTGCACGTGGGGTA

Relative binding free energy, -0.26 kcal/mol:
CTGGGCACGTGGGTGT
TTGCGCACGTGGGAAT

Relative binding free energy, 0.54 kcal/mol:
GGGTTCACGTGATAGT

Relative binding free energy, 0.07 kcal/mol:
GGTGACACGTGTGTTA
AAAGTCACGTGTAGGA
AGCTTCACGTGCGTGT
TGTGGCACGTGGCTTC
CGGGGCACGTGACTGT

Relative binding free energy, 0.32 kcal/mol:
AACTTCACGTGAGTTT

Relative binding free energy, -0.19 kcal/mol:
TATGGCACGTGGGGCC

Relative binding free energy, -0.14 kcal/mol:
AATGGCACGTGGGGTC
ATTGGCACGTGGGAGG
AAGGCCACGTGTTGTT
TTAGGCACGTGGCTTT
TGCTCCACGTGGGTGG

Relative binding free energy, -0.05 kcal/mol:
TTGGCCACGTGTGGGC
GTTAGCACGTGGAGGA
TGGGACACGTGCTTTA
TGGGACACGTGGCATA
TTTTGCACGTGCAGCT

Relative binding free energy, 0.19 kcal/mol:
AGGTTCACGTGGGCCT
TTCTTCACGTGTGCTG
GTCGGCACGTGAAAGG
TGGATCACGTGTTCAG

Relative binding free energy, 0.41 kcal/mol:
GGTTTCACGTGAGTTG

Relative binding free energy, -0.12 kcal/mol:
TTAAACACGTGTGTTA
ATATACACGTGGCGGG

Relative binding free energy, 0.05 kcal/mol:
TATCGCACGTGGATTT
TTGATCACGTGTTGTA
TGTTGCACGTGTCTGA
GCCGACACGTGGTGGG
AGGATCACGTGTTATT

Relative binding free energy, -0.21 kcal/mol:
AGTAACACGTGGGGTT
ATCAGCACGTGGTGTA
AGCGGCACGTGGGATG
CTTAGCACGTGGGTTG

Relative binding free energy, 0.23 kcal/mol:
TGGCTCACGTGGTTCT

Relative binding free energy, 0.2 kcal/mol:
GTAGACACGTGTGATA
TTTGTCACGTGAAAAG
TGGTTCACGTGGCATA

Relative binding free energy, -0.11 kcal/mol:
AGTGCCACGTGGAATG
GCCGGCACGTGTGCGG
GTAGGCACGTGGGCAT

Relative binding free energy, -0.13 kcal/mol:
CTGGGCACGTGGATGT
CAGGACACGTGGTATG
AGTGGCACGTGTAGGA

Relative binding free energy, 0.04 kcal/mol:
TGAGTCACGTGTCTGT
TTCAGCACGTGGGACT
CTGCTCACGTGGGGTT
ACATGCACGTGGGAGA
GTATCCACGTGTTGGT

Relative binding free energy, 0.11 kcal/mol:
TATCACACGTGATGTG
GTTGTCACGTGGACGG
TTGATCACGTGGTCGT
AGAGTCACGTGGTTGT
AGGATCACGTGTCGTT

Relative binding free energy, 0.43 kcal/mol:
CGGGTCACGTGATTAA

Relative binding free energy, 0.08 kcal/mol:
TTCTGCACGTGTCGTA
CTGTGCACGTGATGGG
TGTCGCACGTGATTGC

Relative binding free energy, -0.07 kcal/mol:
TTCGGCACGTGTGGGC
TCAAGCACGTGGTGGA
AAGAGCACGTGCTTGG
TATGGCACGTGTGAAG

Relative binding free energy, -0.16 kcal/mol:
TGGGCCACGTGGTAGG
TGGGGCACGTGGTACC
TTGGACACGTGGGAGT

Relative binding free energy, 0.24 kcal/mol:
TATCTCACGTGGTGGA
GAGATCACGTGGGTCT
ATGTTCACGTGACTAT
TTAAACACGTGTAAAT
ATTTTCACGTGGACTT

Relative binding free energy, -0.03 kcal/mol:
TTTCGCACGTGGCATG
TGAGTCACGTGCATGT
CGGTGCACGTGACGGT

Relative binding free energy, 0.15 kcal/mol:
GATTACACGTGGGGAG
TTCGACACGTGATGTT
TGGGGCACGTGAAGGT
ATAGTCACGTGTTTCG

Relative binding free energy, 0.01 kcal/mol:
GGCTACACGTGGGAGT
CGTGGCACGTGGAAGT
AGTTACACGTGGCGTG
TAATGCACGTGGAGCT
CGGTGCACGTGATATG
TGTGTCACGTGGTTGC

Relative binding free energy, 0.16 kcal/mol:
AAATTCACGTGTCGGT
AAGGTCACGTGATGTG
AGGTGCACGTGAGGCG

Relative binding free energy, -0.04 kcal/mol:
CTTCGCACGTGGATGT
GAAGGCACGTGGTGGT
TGCTGCACGTGGTTGG
CTGTGCACGTGCGTGT

Relative binding free energy, 0.44 kcal/mol:
CTTTTCACGTGCTGGT

Relative binding free energy, 0.36 kcal/mol:
TCCTTCACGTGTTGGA
TGGTACACGTGAGTAG

Relative binding free energy, 0.39 kcal/mol:
AGGTTCACGTGTGTCT

Relative binding free energy, -0.09 kcal/mol:
GGTAGCACGTGTATCG
TATGGCACGTGTGGAG

Relative binding free energy, -0.22 kcal/mol:
TGACGCACGTGCGGTG

Relative binding free energy, 0.1 kcal/mol:
CTGTGCACGTGATGTC
AAGGACACGTGTTGGC
TGCGTCACGTGAGGCG
GGTTACACGTGTATGA
CGTATCACGTGCTGGT

Relative binding free energy, -0.01 kcal/mol:
CGGCGCACGTGTAGGA
AGTAGCACGTGTGCAG
GGACACACGTGGTTGG
AGTTGCACGTGTGTTG
AGTACCACGTGATGGG

Relative binding free energy, 0.13 kcal/mol:
TGGGGCACGTGAGATG
CATATCACGTGTAGGT
ATGTACACGTGGTTGA
GCAAACACGTGTGGGT

Relative binding free energy, 0.35 kcal/mol:
GTAGACACGTGAGGTC

Relative binding free energy, -0.15 kcal/mol:
GCGCGCACGTGGTTGG
AAAGCCACGTGTTGGG

Relative binding free energy, 0.27 kcal/mol:
GGGCACACGTGTTGAG
AGGTTCACGTGGAGGA

Relative binding free energy, -0.25 kcal/mol:
ATAAGCACGTGGTGTG

Relative binding free energy, 0.29 kcal/mol:
TTACTCACGTGTTTTG
TTTGTCACGTGACTTT
GTGTACACGTGAGGTA
TGGGTCACGTGTAGTG

Relative binding free energy, -0.18 kcal/mol:
TTAAGCACGTGTGTTC
AAGTGCACGTGCTTGT
GGGGCCACGTGGTGGC
GTTGGCACGTGCTGTA

Relative binding free energy, 0.52 kcal/mol:
CGGTTCACGTGAGGGT

Relative binding free energy, -0.1 kcal/mol:
TATAGCACGTGTGTCA
GGAGGCACGTGTATTG
GCTAGCACGTGGTATT
TAAGGCACGTGTTCGT
ATGTGCACGTGGTAGT
TTAACCACGTGTTTTG
GTTAACACGTGGTCGT

Relative binding free energy, 0.21 kcal/mol:
GGGTTCACGTGGCTGA
TGATGCACGTGAGGAG
CGGGTCACGTGATGGG
GTTTGCACGTGAGATT
GGAGTCACGTGTTGAT

Relative binding free energy, 0.22 kcal/mol:
GTTCACACGTGTTAGT
GGTAGCACGTGAGTGG
ACGTTCACGTGGATTG

Relative binding free energy, 0.09 kcal/mol:
GATGTCACGTGCAGGG
CGGAACACGTGTAGTG
TTCGACACGTGTATGT
GGTCGCACGTGTGTAT

Relative binding free energy, -0.17 kcal/mol:
GCCTGCACGTGGGGGT
TCAGGCACGTGCAGGG
GAGAGCACGTGGGTGA

Relative binding free energy, 0.14 kcal/mol:
GGCTTCACGTGCGTGG
AAATACACGTGATGGG
TACTTCACGTGTGCGG
GATGGCACGTGAGATA

Relative binding free energy, 0.3 kcal/mol:
GTTCTCACGTGATTAG
GGTTTCACGTGCGTGG

Relative binding free energy, -0.08 kcal/mol:
TGATACACGTGGGGAC
GGTAGCACGTGCCTGT
CGGGGCACGTGTGCCG

Relative binding free energy, 0.12 kcal/mol:
AAGGTCACGTGCTTGT
CCGGTCACGTGTGTTT
GTTGACACGTGGATGC
TTGGTCACGTGGTGAC
TGGGTCACGTGGCGTG

Relative binding free energy, -0.2 kcal/mol:
AGTGGCACGTGGGTGC

Relative binding free energy, 0.28 kcal/mol:
GTTGTCACGTGTAGAT
GTTTTCACGTGGTAGA

Relative binding free energy, 0.02 kcal/mol:
TGTCTCACGTGTGAGA
TCATGCACGTGTTGCG
TAAATCACGTGATTTT
GGAGGCACGTGTAATT

Relative binding free energy, 0 kcal/mol:
TTTTGCACGTGGCGCG
ATTGTCACGTGGCGGC
GGAGACACGTGTTATG
ATTGGCACGTGAAGTG
TTTGACACGTGTGCTA
AGTAGCACGTGCATTT
TTTCGCACGTGATCGG

Relative binding free energy, -0.23 kcal/mol:
CCTGGCACGTGGGGTT
AGTACCACGTGGGTTG

Relative binding free energy, 0.26 kcal/mol:
TAGTTCACGTGGGCGT
TGTTGCACGTGAAGAA
TTCTTCACGTGTGGGT
TTGATCACGTGTAGAG
GGAAACACGTGAGGTG
TGTTTCACGTGGAATG
TGAGTCACGTGATTCG

Relative binding free energy, 0.17 kcal/mol:
TTCATCACGTGGGTAT
TGTTACACGTGCTCTT
TGTAGCACGTGAGGAG
CTATTCACGTGGTTTA

Relative binding free energy, 0.25 kcal/mol:
AGAGTCACGTGATGTT
TGGTTCACGTGCCTGT
TTTATCACGTGTCGGT

Relative binding free energy, -0.06 kcal/mol:
TGGCGCACGTGTTGCG
TGGTCCACGTGCTGTT
AAGGGCACGTGCGTTA
CGGAACACGTGGGGCG
TATGGCACGTGGAGGG
CAGAACACGTGGGTGT
CGGTCCACGTGTTGTG

Relative binding free energy, 0.51 kcal/mol:
TGTATCACGTGAGCGC

Relative binding free energy, 0.18 kcal/mol:
GCGTACACGTGTAGGG
CTGTTCACGTGTAGGT
GAGTTCACGTGCGTGG
ATGTCCACGTGTAAGT
ATAGTCACGTGTTATC

Relative binding free energy, -0.3 kcal/mol:
TCGGGCACGTGCGGTT
CATCGCACGTGGGGGG

Relative binding free energy, 0.06 kcal/mol:
AAAATCACGTGGGCGG
GTAGGCACGTGATTGT
CTAGTCACGTGCGGGG
ATTGACACGTGGTTCA
GTCGTCACGTGGTTAT
GTCAACACGTGCGTGG

Relative binding free energy, -0.02 kcal/mol:
GAGACCACGTGGGTTT
AGCGGCACGTGACGGG
TGTGGCACGTGATATA

Relative binding free energy, 0.33 kcal/mol:
AAATTCACGTGATTGG
GTGTTCACGTGTGCTA
